pIC50: −log10 of the molar value. Lines with a small IC50 respond at low doses; a fit beyond the top or the lowest dose is shown as a bound at that dose. AUC, from the same fit, is the share of area under the viability curve across the 256-fold dose range; the more sensitive the line, the further below 1. Any top dose called inferred was derived from the fitted curves, not read from the paper. For part of these data: An entry number marks a drug with two screens in the source, which often give different values.
How the values were obtained:
Experiment in all cases: Viability of human cancer cell lines after 72 h of drug (GDSC screen)
AZD6482 = compound: Cc1cc([C@@H](C)Nc2ccccc2C(=O)O)c2nc(N3CCOCC3)cc(=O)n2c1 [AZD6482]
Description: (§1)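 Human cancer cell lines in 384-well plates, medium with 10% serum, drug for 72 h over a 256-fold dose range (nine 2-fold or five 4-fold steps up to the top dose). Adherent lines were fixed and stained with the nucleic acid dye Syto60, suspension lines read with resazurin; signal relative to control wells, capped at 0 and 100%. One two-parameter sigmoid per drug and line, fitted in a mixed model over all curves with the slope shared within a line.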

BMN-673 = compound: Cn1ncnc1[C@H]1c2n[nH]c(=O)c3cc(F)cc(c23)N[C@@H]1c1ccc(F)cc1 [BMN-673]; conditions: top dose 10 µM; top dose inferred
Description: as §1

MLN4924 = compound: NS(=O)(=O)OC[C@@H]1C[C@@H](n2ccc3c(N[C@H]4CCc5ccccc54)ncnc32)C[C@@H]1O [MLN4924]; conditions: top dose 1 µM; top dose inferred
Description: as §1

[1] = top dose 5 µM, screen: GDSC drug entry 1066, top dose inferred
[2] = top dose 5.12 µM, screen: GDSC drug entry 156

With “LC4-1 (lymphoblastic leukaemia, suspension)” as the cell line, how does the AUC (AZD6482; [1]) read?
Its AUC is 0.984.

And the pIC50 (AZD6482; [1])?
The pIC50 was < 5.30.

And the AUC (AZD6482; [2])?
The AUC was 0.81.

And the pIC50 (AZD6482; [2])?
Its pIC50 is 5.52.

And the AUC (BMN-673)?
The AUC was 0.689.

And the pIC50 (BMN-673)?
The pIC50 was 5.65.

What about the AUC (MLN4924) of the same cell line?
The AUC was 0.909.

And the pIC50 (MLN4924)?
The pIC50 was < 6.00.

For LC-2-ad (lung adenocarcinoma, adherent), which AUC (AZD6482; [1]) is on record?
The AUC was 0.935.

What about the pIC50 (AZD6482; [1]) of the same cell line?
The pIC50 was < 5.30.

And the AUC (AZD6482; [2])?
The AUC was 0.933.

And the pIC50 (AZD6482; [2])?
Its pIC50 is < 5.29.

And the AUC (BMN-673)?
The AUC was 0.607.

What about the pIC50 (BMN-673) of the same cell line?
Its pIC50 is 5.91.

What about the AUC (MLN4924) of the same cell line?
Its AUC is 0.747.

And the pIC50 (MLN4924)?
The pIC50 was 6.49.

What does the source list for “LCLC-103H (large cell lung carcinoma, adherent)”?
AUC (AZD6482; [1]): 0.906; pIC50 (AZD6482; [1]): < 5.30; AUC (AZD6482; [2]): 0.882; pIC50 (AZD6482; [2]): 5.34; AUC (BMN-673): 0.988; pIC50 (BMN-673): < 5.00; AUC (MLN4924): 0.963; pIC50 (MLN4924): < 6.00

Which results are given for LN-18 (glioma, adherent)?
AUC (AZD6482; [1]): 0.896; pIC50 (AZD6482; [1]): 5.39; AUC (AZD6482; [2]): 0.716; pIC50 (AZD6482; [2]): 5.95; AUC (BMN-673): 0.949; pIC50 (BMN-673): < 5.00; AUC (MLN4924): 0.878; pIC50 (MLN4924): 6.16

With LN-405 (glioma, adherent) as the cell line, how does the AUC (AZD6482; [1]) read?
Its AUC is 0.74.

And the pIC50 (AZD6482; [1])?
Its pIC50 is 5.73.

What about the AUC (AZD6482; [2]) of the same cell line?
Its AUC is 0.76.

What about the pIC50 (AZD6482; [2]) of the same cell line?
The pIC50 was 5.65.

And the AUC (BMN-673)?
Its AUC is 0.971.

What about the pIC50 (BMN-673) of the same cell line?
Its pIC50 is < 5.00.

And the AUC (MLN4924)?
The AUC was 0.971.

What about the pIC50 (MLN4924) of the same cell line?
Its pIC50 is < 6.00.

LNZTA3WT4 (glioma, adherent) was tested. Which AUC (AZD6482; [1]) did it give?
Its AUC is 0.972.

And the pIC50 (AZD6482; [1])?
The pIC50 was < 5.30.

What about the AUC (AZD6482; [2]) of the same cell line?
The AUC was 0.911.

And the pIC50 (AZD6482; [2])?
The pIC50 was < 5.29.

What about the AUC (BMN-673) of the same cell line?
The AUC was 0.815.

And the pIC50 (BMN-673)?
Its pIC50 is 5.27.

And the AUC (MLN4924)?
Its AUC is 0.822.

What about the pIC50 (MLN4924) of the same cell line?
The pIC50 was 6.24.

What does the source list for “LOUCY (T-cell lymphoblastic leukaemia, suspension)”?
AUC (AZD6482; [1]): 0.916; pIC50 (AZD6482; [1]): < 5.30; AUC (AZD6482; [2]): 0.944; pIC50 (AZD6482; [2]): < 5.29; AUC (BMN-673): 0.982; pIC50 (BMN-673): < 5.00; AUC (MLN4924): 0.929; pIC50 (MLN4924): < 6.00

Which results are given for LS-411N (large intestine, adherent)?
AUC (AZD6482; [1]): 0.912; pIC50 (AZD6482; [1]): < 5.30; AUC (AZD6482; [2]): 0.918; pIC50 (AZD6482; [2]): < 5.29; AUC (BMN-673): 0.886; pIC50 (BMN-673): < 5.00; AUC (MLN4924): 0.915; pIC50 (MLN4924): < 6.00

With “LU-99A (large cell lung carcinoma, adherent)” as the cell line, how does the AUC (AZD6482; [1]) read?
Its AUC is 0.964.

What about the pIC50 (AZD6482; [1]) of the same cell line?
Its pIC50 is < 5.30.

What about the AUC (AZD6482; [2]) of the same cell line?
The AUC was 0.971.

And the pIC50 (AZD6482; [2])?
Its pIC50 is < 5.29.

What about the AUC (BMN-673) of the same cell line?
The AUC was 0.541.

And the pIC50 (BMN-673)?
Its pIC50 is 6.09.

What about the AUC (MLN4924) of the same cell line?
Its AUC is 0.603.

And the pIC50 (MLN4924)?
Its pIC50 is 6.92.

Which results are given for “LU-134-A (small cell lung carcinoma, suspension)”?
AUC (AZD6482; [1]): 0.94; pIC50 (AZD6482; [1]): < 5.30; AUC (AZD6482; [2]): 0.933; pIC50 (AZD6482; [2]): < 5.29; AUC (BMN-673): 0.862; pIC50 (BMN-673): 5.02; AUC (MLN4924): 0.979; pIC50 (MLN4924): < 6.00

“LU-135 (small cell lung carcinoma, suspension)” was tested. Which AUC (AZD6482; [1]) did it give?
The AUC was 0.975.

And the pIC50 (AZD6482; [1])?
The pIC50 was < 5.30.

And the AUC (AZD6482; [2])?
Its AUC is 0.972.

And the pIC50 (AZD6482; [2])?
The pIC50 was < 5.29.

And the AUC (BMN-673)?
The AUC was 0.974.

And the pIC50 (BMN-673)?
Its pIC50 is < 5.00.

And the AUC (MLN4924)?
The AUC was 0.984.

What about the pIC50 (MLN4924) of the same cell line?
The pIC50 was < 6.00.

For “LU-139 (small cell lung carcinoma, suspension)”, which AUC (AZD6482; [1]) is on record?
The AUC was 0.886.

What about the pIC50 (AZD6482; [1]) of the same cell line?
The pIC50 was < 5.30.

And the AUC (AZD6482; [2])?
The AUC was 0.982.

What about the pIC50 (AZD6482; [2]) of the same cell line?
The pIC50 was < 5.29.

What about the AUC (BMN-673) of the same cell line?
Its AUC is 0.98.

And the pIC50 (BMN-673)?
Its pIC50 is < 5.00.

What about the AUC (MLN4924) of the same cell line?
The AUC was 0.98.

And the pIC50 (MLN4924)?
Its pIC50 is < 6.00.

What does the source list for “LU-165 (small cell lung carcinoma, suspension)”?
AUC (AZD6482; [1]): 0.988; pIC50 (AZD6482; [1]): < 5.30; AUC (AZD6482; [2]): 0.954; pIC50 (AZD6482; [2]): < 5.29; AUC (BMN-673): 0.974; pIC50 (BMN-673): < 5.00; AUC (MLN4924): 0.987; pIC50 (MLN4924): < 6.00

Which results are given for M14 (melanoma, adherent)?
AUC (AZD6482; [1]): 0.926; pIC50 (AZD6482; [1]): < 5.30; AUC (AZD6482; [2]): 0.968; pIC50 (AZD6482; [2]): < 5.29; AUC (BMN-673): 0.819; pIC50 (BMN-673): 5.22; AUC (MLN4924): 0.902; pIC50 (MLN4924): < 6.00

Which AUC (AZD6482; [1]) does the source give for MC116 (B-cell lymphoma, suspension) here?
The AUC was 0.999.

What about the pIC50 (AZD6482; [1]) of the same cell line?
The pIC50 was < 5.30.

And the AUC (AZD6482; [2])?
Its AUC is 0.769.

What about the pIC50 (AZD6482; [2]) of the same cell line?
Its pIC50 is 5.84.

And the AUC (BMN-673)?
Its AUC is 0.999.

And the pIC50 (BMN-673)?
The pIC50 was < 5.00.

What about the AUC (MLN4924) of the same cell line?
Its AUC is 0.999.

And the pIC50 (MLN4924)?
Its pIC50 is < 6.00.
